# Laboratory results as given in the supplement of paper PMC8728848.
# Some of the results follow.
# B1: TIM1 (protein)
# chain: ADGIQSVKVGGEAGPSVTLPCHYSGAVTSMCWNRGSCSLFTCQNGIVWTNGTHVTYRKDTRYKLLGDLSRRDVSLTIENTAVSDSGVYCCRVEHRGWFNDMKITVSLEIVPPHHHHHH
# Legend:
# Experiment in all cases: glycan array binding signal (z-score within array); higher = stronger binding
# Settings in all cases: glycan notation: IUPAC condensed, linker removed
# [1] = molecular target: Neu5Ac(a2-3)GalNAc
# Outline: (§1)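 The binding signal is a Z-score computed within each array and averaged over linkers. Arrays of the same protein sequence at different concentrations or buffers were also averaged together. Data originate from 3228 arrays in the Consortium for Functional Glycomics database, kept only where the protein sequence was available.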
# [2] = molecular target: Neu5Ac(a2-3)GalNAc(b1-4)GlcNAc
# Outline: as §1
# [3] = molecular target: Neu5Ac(a2-3)[GalNAc(b1-4)]Gal(b1-4)Glc
# Outline: as §1
# [4] = molecular target: Neu5Ac(a2-3)[GalNAc(b1-4)]Gal(b1-4)GlcNAc
# Outline: as §1
# [5] = molecular target: Neu5Ac(a2-3)[GalNAc(b1-4)]Gal(b1-4)GlcNAc(b1-3)GalNAc
# Outline: as §1
# [6] = molecular target: Neu5Ac(a2-3)[Neu5Ac(a2-6)]GalNAc
# Outline: as §1
# [7] = molecular target: Neu5Ac(a2-6)Gal
# Outline: as §1
# [8] = molecular target: Neu5Ac(a2-6)Gal(b1-3)GlcNAc(b1-3)[Gal(b1-4)GlcNAc(b1-6)]Gal(b1-4)Glc
# Outline: as §1
# [9] = molecular target: Neu5Ac(a2-6)Gal(b1-4)Glc
# Outline: as §1
# [10] = molecular target: Neu5Ac(a2-6)Gal(b1-4)GlcNAc
# Outline: as §1
# [11] = molecular target: Neu5Ac(a2-6)Gal(b1-4)GlcNAc(b1-2)Man
# Outline: as §1
# [12] = molecular target: Neu5Ac(a2-6)Gal(b1-4)GlcNAc(b1-2)Man(a1-3)Man(b1-4)GlcNAc(b1-4)GlcNAc
# Outline: as §1
# [13] = molecular target: Neu5Ac(a2-6)Gal(b1-4)GlcNAc(b1-2)Man(a1-3)[Gal(b1-4)GlcNAc(b1-2)Man(a1-6)]Man(b1-4)GlcNAc(b1-4)GlcNAc
# Outline: as §1
# [14] = molecular target: Neu5Ac(a2-6)Gal(b1-4)GlcNAc(b1-2)Man(a1-3)[GlcNAc(b1-2)Man(a1-6)]Man(b1-4)GlcNAc(b1-4)GlcNAc
# Outline: as §1
# [15] = molecular target: Neu5Ac(a2-6)Gal(b1-4)GlcNAc(b1-2)Man(a1-3)[GlcNAc(b1-4)][Neu5Ac(a2-6)Gal(b1-4)GlcNAc(b1-2)Man(a1-6)]Man(b1-4)GlcNAc(b1-4)GlcNAc
# Outline: as §1
# [16] = molecular target: Neu5Ac(a2-6)Gal(b1-4)GlcNAc(b1-2)Man(a1-3)[Man(a1-6)]Man(b1-4)GlcNAc(b1-4)GlcNAc
# Outline: as §1
# [17] = molecular target: Neu5Ac(a2-6)Gal(b1-4)GlcNAc(b1-2)Man(a1-3)[Neu5Ac(a2-3)Gal(b1-4)GlcNAc(b1-2)Man(a1-6)]Man(b1-4)GlcNAc(b1-4)GlcNAc
# Outline: as §1
# [18] = molecular target: Neu5Ac(a2-6)Gal(b1-4)GlcNAc(b1-2)Man(a1-3)[Neu5Ac(a2-6)Gal(b1-4)GlcNAc(b1-2)Man(a1-6)]Man(b1-4)GlcNAc(b1-4)GlcNAc
# Outline: as §1
# [19] = molecular target: Neu5Ac(a2-6)Gal(b1-4)GlcNAc(b1-2)Man(a1-3)[Neu5Ac(a2-6)Gal(b1-4)GlcNAc(b1-2)Man(a1-6)]Man(b1-4)GlcNAc(b1-4)[Fuc(a1-6)]GlcNAc
# Outline: as §1
# [20] = molecular target: Neu5Ac(a2-6)Gal(b1-4)GlcNAc(b1-2)Man(a1-6)Man(b1-4)GlcNAc(b1-4)GlcNAc
# Outline: as §1
# [21] = molecular target: Neu5Ac(a2-6)Gal(b1-4)GlcNAc(b1-2)Man(a1-6)[Gal(b1-4)GlcNAc(b1-2)Man(a1-3)]Man(b1-4)GlcNAc(b1-4)GlcNAc
# Outline: as §1
# [22] = molecular target: Neu5Ac(a2-6)Gal(b1-4)GlcNAc(b1-2)Man(a1-6)[GlcNAc(b1-2)Man(a1-3)]Man(b1-4)GlcNAc(b1-4)GlcNAc
# Outline: as §1
binder,measurement,setting,value
B1,glycan array binding signal (z-score),[1],-0.23
same,glycan array binding signal (z-score),[2],-0.235
same,glycan array binding signal (z-score),[3],-0.199
same,glycan array binding signal (z-score),[4],-0.182
same,glycan array binding signal (z-score),[5],0.098
same,glycan array binding signal (z-score),[6],-0.255
same,glycan array binding signal (z-score),[7],-0.174
same,glycan array binding signal (z-score),[8],-0.254
same,glycan array binding signal (z-score),[9],-0.204
same,glycan array binding signal (z-score),[10],-0.238
same,glycan array binding signal (z-score),[11],-0.271
same,glycan array binding signal (z-score),[12],-0.192
same,glycan array binding signal (z-score),[13],-0.085
same,glycan array binding signal (z-score),[14],-0.243
same,glycan array binding signal (z-score),[15],-0.194
same,glycan array binding signal (z-score),[16],0.175
same,glycan array binding signal (z-score),[17],-0.264
same,glycan array binding signal (z-score),[18],-0.229
same,glycan array binding signal (z-score),[19],-0.14
same,glycan array binding signal (z-score),[20],-0.213
same,glycan array binding signal (z-score),[21],-0.24
same,glycan array binding signal (z-score),[22],-0.239
